Binding data for 3 molecules are collected here from paper PMC11477141, “Chemokine Receptor N-Terminus Charge Dictates Reliance on Post-Translational Modifications for Effective Ligand Capture and Following Boosting by Defense Peptides” (International Journal of Molecular Sciences, 2024).

These are yes or no findings as the source states them, for the method shown. Some entries that bind do so weakly or less than the wild type. Sequences can lack the tags named with a protein.

The target in experiment [1] is T1, FAM-labelled peptide corresponding to the naked (unmodified) CCR1 N-terminus (human).
T1 sequence (peptide, 5,6-carboxyfluorescein (5,6-FAM) on the N-terminus): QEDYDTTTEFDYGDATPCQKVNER
The experiment is described as follows: fluorescence polarisation; FAM-labelled receptor N-terminal peptide as probe at 250 nM in FP buffer (1:3, PBS:MilliQ), black 384-well plate; basic peptide titrated in a two-fold series, 12.21 nM to 100 µM (told for C21TP^81-111); triplicates; Kd fitted in GraphPad Prism 9; both purified.

The target in experiment [2] is T2, FAM-labelled peptide corresponding to the naked (unmodified) CCR5 N-terminus (human).
T2 sequence (peptide, 5,6-carboxyfluorescein (5,6-FAM) on the N-terminus): ADYQVSSPIYDINYYTSEP
The experiment is described as above.

DSHEKRHHGYRRKFHEKHHSHREFPFYGDYGSNYLYDN (peptide, UniProt P15515 20-57) [histatin1]: the results for the binding entry in experiment [1] and in experiment [2] were “binds” and “no binding”, respectively.

B1: C21TP^81-111, basic C-terminal peptide of the chemokine CCL21 (last 31 aa, residues 81-111) (peptide, UniProt O00585 104-134, looked up)
peptide: RKDRGASKTGKKGKGSKGCKRTERSQTPKGP
notes: also called C-terminal peptide of CCL21; source: bought: Caslo (Lyngby, Denmark)
Turning to B1, the binding entry in experiment [2] was “no binding (tested: 100 µM)”. Consider GIGDPVTCLKSGAICHPVFCPRRYKQIGTCGLPGTKCCKKP (peptide, UniProt O15263 24-64) [human beta defensin 2], for which the values for the binding result in experiment [1] and in experiment [2] were “binds” and “no binding”, respectively.
